Data taken from PMC4336329 (PLoS ONE, 2015).
About 14,000 (4.5%) of roughly 310,000 compounds showed an effect of 50% or more. Effects have a minus sign here. The list shows a part of the results.

Molecular target: human ether-à-go-go-related gene (hERG) potassium channel (human, UniProt Q12809)
Assay: primary screen, population patch clamp on CHO cells stably expressing hERG
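Further: peak tail current of the secondary pulse compared with the same well before compound.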

Sequence of human ether-à-go-go-related gene (hERG) potassium channel (Q12809 whole entry, looked up): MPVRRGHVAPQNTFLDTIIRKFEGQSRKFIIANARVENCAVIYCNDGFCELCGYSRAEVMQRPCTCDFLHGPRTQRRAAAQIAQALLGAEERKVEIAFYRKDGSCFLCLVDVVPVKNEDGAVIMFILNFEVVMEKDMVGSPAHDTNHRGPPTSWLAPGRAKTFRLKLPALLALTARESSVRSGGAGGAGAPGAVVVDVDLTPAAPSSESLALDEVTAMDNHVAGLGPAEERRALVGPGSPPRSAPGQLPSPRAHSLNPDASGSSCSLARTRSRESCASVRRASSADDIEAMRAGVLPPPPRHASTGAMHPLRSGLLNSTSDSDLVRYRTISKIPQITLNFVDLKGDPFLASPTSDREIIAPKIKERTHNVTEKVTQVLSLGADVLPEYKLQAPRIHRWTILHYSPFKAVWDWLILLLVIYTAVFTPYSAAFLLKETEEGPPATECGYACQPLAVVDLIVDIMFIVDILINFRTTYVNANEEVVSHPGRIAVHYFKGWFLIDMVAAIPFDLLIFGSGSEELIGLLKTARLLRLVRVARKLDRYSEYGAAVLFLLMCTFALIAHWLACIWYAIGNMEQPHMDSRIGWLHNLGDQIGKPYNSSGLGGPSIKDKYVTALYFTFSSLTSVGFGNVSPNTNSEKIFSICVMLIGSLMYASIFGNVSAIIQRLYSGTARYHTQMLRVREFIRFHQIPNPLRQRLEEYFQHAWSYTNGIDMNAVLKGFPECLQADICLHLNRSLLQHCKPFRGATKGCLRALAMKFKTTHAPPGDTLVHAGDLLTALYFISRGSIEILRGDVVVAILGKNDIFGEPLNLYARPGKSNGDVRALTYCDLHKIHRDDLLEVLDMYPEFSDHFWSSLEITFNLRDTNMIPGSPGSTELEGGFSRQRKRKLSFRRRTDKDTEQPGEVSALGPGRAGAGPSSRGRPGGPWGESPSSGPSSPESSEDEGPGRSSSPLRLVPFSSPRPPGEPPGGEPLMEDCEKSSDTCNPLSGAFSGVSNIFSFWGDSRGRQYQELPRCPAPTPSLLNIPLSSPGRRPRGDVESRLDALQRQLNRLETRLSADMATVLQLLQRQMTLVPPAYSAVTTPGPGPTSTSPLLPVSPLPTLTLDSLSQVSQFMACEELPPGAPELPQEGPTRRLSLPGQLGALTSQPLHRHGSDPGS

Row | SMILES | hERG current change (%, negative = inhibition) at 10uM
1 | C#CCOCCOCCOCCNc1nc(N2CCN(C(=O)CCCCCCCCCCNC(=O)[C@H](CO)n3cc(CCCSC)nn3)CC2)nc(N2CCN(C(=O)CCCCCCCCCCNC(=O)[C@H](CO)n3cc(CCCSC)nn3)CC2)n1 | 4.57%
2 | CCN(CC)c1ccc(/C=N/Nc2nc(C)cc(=O)[nH]2)c(O)c1 | -1.18%
3 | O=S(=O)(Cc1ccccc1)NCCc1ccc(F)cc1 | 8.08%
4 | CNS(=O)(=O)c1ccc(NC(=O)c2ccccn2)cc1 | 19.1%
5 | COC(=O)Cc1c(C)nc2nc[nH]n2c1=O | 14.4%
6 | O=C(c1cc(-c2ccco2)nc2ccccc12)N(Cc1nnc(-c2ccc(Cl)cc2)o1)C1CC1 | -18.8%
7 | CC1Cc2cc(/C(O)=C3/C(=O)C(=O)N(CC4CCCO4)C3c3ccco3)ccc2O1 (centres unmarked) | 14.1%
8 | Cc1cc(C)n(CC(O)COc2ccccc2[N+](=O)[O-])n1 (centres unmarked) | 9.8%
9 | COC(=O)c1cc(Oc2ccc(S(=O)(=O)N3CCOCC3)cc2[N+](=O)[O-])cc(C(=O)OC)c1 | -2.29%
10 | CC1(C)CC(=O)C(Sc2ccc(Br)cc2)=C(O)C1 | 15.5%
11 | Cc1c(Cl)cccc1NC(=S)NC1CCN(C(C)C)CC1 | 3.61%
12 | Cc1ccc(C)c(N2CCN(CCCNC(=O)Cn3cccc3C(=O)c3ccccc3C)CC2)c1 | -74%
13 | O=c1cc(-c2ccc(O)c(O)c2)oc2c(C3O[C@H](CO)[C@@H](O)[C@H](O)[C@H]3O)c(O)cc(O)c12 (some centres unmarked) | -2.58%
14 | CCc1c(C)sc(NC(=O)Cc2ccccc2OC)c1C(=O)N1CCOCC1 | -16.4%
15 | CCOC(=O)C1CCCN(C(=O)/C=C/c2ccccc2[N+](=O)[O-])C1 (centres unmarked) | -12.6%
16 | Nc1c(C(=O)NCc2ccc3c(c2)OCO3)nnn1Cc1cccc(F)c1 | 9.79%
17 | Cc1cc(C)cc(N2C(=O)CC(N3CCOCC3)C2=O)c1 (centres unmarked) | 14.9%
18 | O=C(O)Cc1ccc(NC(=S)Nc2ccc(Br)cc2Cl)cc1 | 7.02%
19 | Cc1onc(-c2ccccc2)c1C(=O)Oc1ccccc1 | -8.35%
20 | CC(Sc1ccccc1)C(=O)Nc1ccc(S(=O)(=O)N2CCOCC2)cc1 (centres unmarked) | -13.6%
21 | CN(Cc1ccccc1)C(=S)NC(=O)c1ccc(-c2ccccc2)cc1 | 19.8%
22 | Nc1nc(SCC(=O)N2CCN(c3ccccc3)CC2)n[nH]1 | 19.5%

Row | SMILES | hERG current change (%, negative = inhibition) at 10uM
23 | O=C(C1CCN(S(=O)(=O)c2ccccc2)CC1)N1CCOCC1 | -10.3%
24 | O=S(=O)(c1cc(F)ccc1F)N1CCN(c2ccccn2)CC1 | -0.384%
25 | Cc1ccc(NC(=O)CCC2CC(C)(C)OC2=O)cc1 (centres unmarked) | 23.6%
26 | COc1cccc(NC(=O)NNC(=O)C(C)Oc2ccc3ccccc3c2)c1 (centres unmarked) | 4.48%
27 | COc1ccc(Cl)cc1NC(=S)N1CC(C)OC(C)C1 (centres unmarked) | 2.89%
28 | COc1ccc(OC)c(NC(=O)c2ccc(NS(C)(=O)=O)cc2)c1 | -17.8%
29 | Fc1ccc(NC(=S)NCc2cccnc2)cc1 | 13.1%
30 | Cc1ccc(C)c(-c2cc(C(=O)Nc3cccc(C(=O)O)c3)c3ccccc3n2)c1 | 20.3%
31 | CC(=O)c1c(-c2ccc(Cl)cc2Cl)noc1C | 9.37%
32 | CCC(C)CCN1C(N(C)C)=NC[C@@H]1C (some centres unmarked) | 15.3%
33 | Cn1c(=O)c(C(=O)COC(=O)c2cc(-c3ccco3)nc3ccccc23)c(N)n(CC2CC2)c1=O | -5.15%
34 | Cc1ccc(C(C)NC(=O)C2CCCO2)cc1C (centres unmarked) | 19.1%
35 | O=C(NCC1CCCO1)c1cc2ccccc2o1 (centres unmarked) | 18.4%
36 | Cc1nn(C)c(C)c1NC(=O)COc1ccc(Cl)cc1Br | -10.5%
37 | CCC(C(=O)N1CCN(c2ncccn2)CC1)c1ccccc1 (centres unmarked) | -0.742%
38 | COc1ccc(C2/C(=C(/O)c3ccc(Cl)cc3)C(=O)C(=O)N2CCN2CCOCC2)c(OC)c1 (centres unmarked) | -2.66%
39 | Cc1ccc(C2C3CN(C(C)C)CC=C3C(C#N)=C(N)C2(C#N)C#N)cc1 (centres unmarked) | -23.1%
40 | Cc1[nH]c2ccccc2c1-c1ccc(Cl)nn1 | 20.5%
41 | O=C(O)c1cnn2cc(-c3[nH]ncc3[N+](=O)[O-])cnc12 | 5.14%
42 | CC(C)Nc1nc(N)c(C(=O)C23CC4CC(CC(C4)C2)C3)s1 | -0.879%
43 | Cc1ccc(OCC(=O)NNC(=O)CCc2ccccc2)c(Br)c1 | 10%
44 | CC(C)c1ccc(C(C)NC(=O)C2CCCC2)cc1 (centres unmarked) | -2.72%
